Experimental data reported in article PMC9911399, “Two distinct binding modes provide the RNA-binding protein RbFox with extraordinary sequence specificity”.
Changes are numbered by the printed parent chain; changes in the protein carry UniProt numbers. The list shows a part of the results.

B1: UGAAGUC (DNA:RNA)
RNA: GGGAGACCGGAAUUCAGAUUGUCCUGAAGUCUUAAAUCCCGUCGUAGCCACCA
DNA 1: CAATCTGAATTCCGGTCTCCC
DNA 2: TGGTGGCTACGACGGGATT
B2: CACGAUU (DNA:RNA)
RNA: B1 RNA with U25C, G26A, A27C, A28G, G29A, C31U
DNA 1: CAATCTGAATTCCGGTCTCCC
DNA 2: TGGTGGCTACGACGGGATT
B3: AUGGUGC (DNA:RNA)
RNA: B1 RNA with U25A, G26U, A27G, A28G, G29U, U30G
DNA 1: CAATCTGAATTCCGGTCTCCC
DNA 2: TGGTGGCTACGACGGGATT
B4: AGGGUUG (DNA:RNA)
RNA: B1 RNA with U25A, A27G, A28G, G29U, C31G
DNA 1: CAATCTGAATTCCGGTCTCCC
DNA 2: TGGTGGCTACGACGGGATT
B5: UAAUAAA (DNA:RNA)
RNA: B1 RNA with G26A, A28U, G29A, U30A, C31A
DNA 1: CAATCTGAATTCCGGTCTCCC
DNA 2: TGGTGGCTACGACGGGATT
B6: UAGAUAA (DNA:RNA)
RNA: B1 RNA with G26A, A27G, G29U, U30A, C31A
DNA 1: CAATCTGAATTCCGGTCTCCC
DNA 2: TGGTGGCTACGACGGGATT
B7: AGUGGGA (DNA:RNA)
RNA: B1 RNA with U25A, A27U, A28G, U30G, C31A
DNA 1: CAATCTGAATTCCGGTCTCCC
DNA 2: TGGTGGCTACGACGGGATT
B8: CCGCCUU (DNA:RNA)
RNA: B1 RNA with U25C, G26C, A27G, A28C, G29C, C31U
DNA 1: CAATCTGAATTCCGGTCTCCC
DNA 2: TGGTGGCTACGACGGGATT
B9: CUCAUUG (DNA:RNA)
RNA: B1 RNA with U25C, G26U, A27C, G29U, C31G
DNA 1: CAATCTGAATTCCGGTCTCCC
DNA 2: TGGTGGCTACGACGGGATT

What follows are binders tested against T1, RBFOX1 RRM (Homo sapiens, UniProt Q9NWB1 109-208) (assay: EMSA; HiTS-Eq, 1 nM pool, 10 min; buffer printed only for the single-RNA assays: 10 mM Tris pH 7.5, 150 mM NaCl, 3.4 mM EDTA, 0.001% NP-40, 30 C). Settings: tags: His6 N-terminal (pET28a); label: 5' 32P.
T1 sequence: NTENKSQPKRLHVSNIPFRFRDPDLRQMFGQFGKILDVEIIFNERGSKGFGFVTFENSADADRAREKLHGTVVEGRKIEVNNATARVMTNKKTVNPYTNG
Method in brief: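 These values rest on relative association constants, computed from read-count changes of each RNA species versus the control reaction and normalised to the cognate motif. Reads came from free RNA recovered by 8% native PAGE after purified RbFox RRM (wild type or mutant) at increasing concentrations was equilibrated for 10 min in 50 µL with 1 nM of a 5′-radiolabelled pool with 7 randomized nucleotides and DNA-annealed flanks.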

Row | Binder | binding signal
1 | B1 | 0.0195 KA relative to UGCAUGU
2 | B2 | 0.00297 KA relative to UGCAUGU
3 | B3 | 0.0164 KA relative to UGCAUGU
4 | B4 | 0.0284 KA relative to UGCAUGU
5 | B5 | 0.00103 KA relative to UGCAUGU
6 | B6 | 0.00555 KA relative to UGCAUGU
7 | B7 | 0.00944 KA relative to UGCAUGU
8 | B8 | 0.00562 KA relative to UGCAUGU
9 | B9 | 0.0114 KA relative to UGCAUGU
